Results: PubChem BioAssay AID881 (National Center for Advancing Translational Sciences (NCATS), 2007)
The whole screen tested about 110,000 compounds, of which about 610 (0.55%) were called active. The inconclusive results got no clear call from the source; some entries with a clear call stand among them for comparison. Calls come from the whole dose curve; as a rule, active = well fitted inhibition curve with a large enough effect; inconclusive = small, poorly fitted or top-dose-only effect; inactive = no such curve, though single readings can be large or run the other way. Where the call is inconclusive, the potency comes from a doubtful curve fit.

Target: Polyunsaturated fatty acid lipoxygenase ALOX15B (Homo sapiens) (UniProt O15296)
Assay: qHTS Assay for Inhibitors of 15-hLO-2 (15-human lipoxygenase 2); note: nearly all actives have a fitted effect of over 60% in size
Conditions: purified 15hLO-2, xylenol orange hydroperoxide absorbance; activity change, negative = inhibition: at 57.1 µM (top of the series) unless noted
In short: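 Purified human 15hLO-2 (50 nM) preincubated 15 min with compound, then 45 uM arachidonic acid for 90 min at RT in 25 mM Hepes pH 7.5, 0.01% Triton X-100. Hydroperoxide detected by Fe-xylenol orange; 573/405 nm absorbance ratio.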
% is set by controls: 0 for no effect and ±100 for the full control effect; potency is the fitted concentration of half-maximal effect; tags give direction and shape of the fitted curve.

Chain of UniProt O15296 (O15296 whole entry, looked up): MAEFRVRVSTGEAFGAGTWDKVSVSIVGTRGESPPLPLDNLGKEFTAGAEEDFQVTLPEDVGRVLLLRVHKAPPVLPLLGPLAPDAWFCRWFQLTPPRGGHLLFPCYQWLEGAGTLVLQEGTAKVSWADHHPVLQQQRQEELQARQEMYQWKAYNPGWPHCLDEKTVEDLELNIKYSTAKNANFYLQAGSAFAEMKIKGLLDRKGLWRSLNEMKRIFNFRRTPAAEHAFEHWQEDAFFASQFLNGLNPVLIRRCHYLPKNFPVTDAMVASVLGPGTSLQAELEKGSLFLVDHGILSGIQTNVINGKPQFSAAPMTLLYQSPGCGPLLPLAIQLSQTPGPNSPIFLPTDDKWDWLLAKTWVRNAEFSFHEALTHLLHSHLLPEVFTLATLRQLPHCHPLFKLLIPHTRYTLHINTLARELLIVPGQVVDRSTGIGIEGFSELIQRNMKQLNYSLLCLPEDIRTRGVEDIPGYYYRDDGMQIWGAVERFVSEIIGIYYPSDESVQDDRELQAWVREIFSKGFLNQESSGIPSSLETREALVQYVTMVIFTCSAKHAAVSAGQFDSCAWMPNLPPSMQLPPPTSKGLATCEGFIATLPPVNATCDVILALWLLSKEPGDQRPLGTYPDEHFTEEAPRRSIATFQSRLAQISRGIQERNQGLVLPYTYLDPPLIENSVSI

Row | Structure (SMILES) | Potency | activity change, negative = inhibition
1 | Cc1cc(=S)[nH]c2c(C)cccc12 | inconclusive: 25.1 µM [inhibitor, partial curve] | –
2 | COc1cc(C2C(C(=O)c3cccs3)=C(O)C(=O)N2Cc2ccco2)cc(OC)c1OC (stereo unspecified) | inconclusive: 0.158 µM [inhibitor, full curve, poor fit] | –
3 | Cc1c(C(=O)OCC(=O)N2CC(=O)Nc3ccccc32)oc2ccc(Br)cc12 | inconclusive: 12.6 µM [inhibitor, partial curve] | –
4 | COC(=O)c1sc(NC(=O)c2ccco2)nc1C | inactive | –
5 | CC(C)OCCCn1c(=N)c(C(N)=S)cc2c(=O)n3ccccc3nc21 | inconclusive: 25.1 µM [inhibitor, single point] | –
6 | COc1ccc(-c2nnc(SCc3nnc(-c4ccc(Cl)cc4)o3)n2-c2ccccc2)cc1 | inactive | –
7 | Cn1c(=O)c2ncn(CC(=O)Nc3cccc(-c4nc5ccccc5s4)c3)c2n(C)c1=O | inconclusive: 25.1 µM [inhibitor, single point] | –
8 | O=C(NC1(O)C(=O)c2ccccc2C1=O)c1ccccc1 | active: 25.1 µM | –
9 | CCOC(=O)/C=c1\s/c(=C\c2ccc3cc(OC)ccc3c2)c(=O)n1CC(=O)NCC1CCCO1 (stereo unspecified) | inconclusive: 20 µM [inhibitor, single point] | –
10 | O=C(O)/C=C/c1ccc(/C=C/C(=O)O)cc1 | inactive | –
11 | CCOc1ccc(C(=O)NCc2ccccn2)cc1 | inactive | –
12 | CN1CCN(c2ncnc3c2[nH]c2ccc(F)cc23)CC1 | inactive | –
13 | COc1cc2oc(-c3ccccc3)cc(=O)c2cc1OC | inactive | –
14 | c1cc2c3c(cccc3c1)NC1(CCCCCC1)N2 | – | inconclusive: -45.2% [inhibitor] [at 11.4 µM]
15 | O=C(O)Cc1cccc(OCCCN(Cc2cccc(C(F)(F)F)c2Cl)CC(c2ccccc2)c2ccccc2)c1 | inconclusive: 31.6 µM [inhibitor, partial curve] | –
16 | Oc1ccc(C2=Nn3c(nnc3-c3ccco3)SC2)cc1O | inconclusive: 15.8 µM [inhibitor, partial curve] | –
17 | O=C(c1ccc2nc(-c3ccco3)c(-c3ccco3)nc2c1)N1CCN(c2ncccn2)CC1 | inconclusive: 10 µM [inhibitor, partial curve] | –
18 | Cc1ccc(N=Cc2c(O)n(-c3ccc4c(c3)OCO4)c(=O)c3ccccc23)cc1 | inconclusive: 25.1 µM [inhibitor, partial curve] | –
19 | COc1cc(CNc2ccc(C)c(C)c2)cc(OC)c1OC | inconclusive: 39.8 µM [inhibitor, single point] | –
20 | COc1ccc(CCNC(=S)Nc2cc(C)cc(C)c2)cc1 | inconclusive: 25.1 µM [inhibitor, partial curve] | –
21 | CCOCCCNC(=O)C(C)NS(=O)(=O)c1ccc(C)cc1 (stereo unspecified) | inactive | –
22 | O=C1C2C3C=CC(CO)(O3)C2C(=O)N1c1ccccc1-c1ccccc1 (stereo unspecified) | inconclusive: 0.316 µM [inhibitor, full curve] | –
23 | O=C(c1ccc(Cl)cc1)c1ccc(OCC(=O)N2CCOCC2)cc1 | inactive | –
24 | Cc1cccn2c(=O)c3cc(C#N)c(=O)n(-c4c(C)n(C)n(-c5ccccc5)c4=O)c3nc12 | inconclusive: 31.6 µM [inhibitor, single point] | –

Row | Structure (SMILES) | Potency | activity change, negative = inhibition
25 | Nc1nnc(-c2ccccc2Cl)s1 | inconclusive: 39.8 µM [inhibitor, single point] | –
26 | O=C(COC(=O)c1ccccc1Nc1ccc(SC(F)F)cc1)NCc1ccco1 | inconclusive: 0.316 µM [inhibitor, full curve, poor fit] | –
27 | Cc1ccccc1OCC(=O)Nc1sc(C(=O)Nc2cccc(C)c2C)c(C)c1C#N | inactive | –
28 | COc1cc(C(=O)OCC(=O)NC2CCCC2)cc(NC(=O)c2ccco2)c1OC | inconclusive: 39.8 µM [inhibitor, single point] | –
29 | NC(N)=N/N=C(/c1ccccc1)c1ccc(O)cc1O | – | inactive: 1.73% [at 11.4 µM]
30 | CCN1CCN(C(=O)NC(C(=O)NC2C(=O)N3C2SC(C)(C)C3C(=O)O)c2ccccc2)C(=O)C1=O (stereo unspecified) | inactive | –
31 | O=C(NC(=S)N(Cc1ccccc1)Cc1ccccc1)C1CCCCC1 | inconclusive: 10 µM [inhibitor, partial curve] | –
32 | Cc1ccc(N=Cc2cccc(O)c2O)c(C)c1 | inconclusive: 12.6 µM [inhibitor, partial curve] | –
33 | COc1ccccc1NC(=O)N(Cc1ccco1)Cc1cc2cc(C)cc(C)c2[nH]c1=O | inactive | –
34 | Cc1cccc(NC(=O)Cn2c(=O)n3nc(CCn4nc(C)cc4C)nc3c3ccccc32)c1 | inconclusive: 15.8 µM [inhibitor, single point] | –
35 | CC[C@H]1CN(C)[C@H]2Cc3c([nH]c4ccccc34)C(=O)C[C@H]1[C@H]2C(=O)OC | – | inactive: -3.95% [at 11.4 µM]
36 | Oc1cc2c(cc1O)CN(C(=S)NCCc1ccc(Cl)cc1)CCC2 | active: 12.6 µM | –
37 | Cc1cc(C)c2c(c1)-c1c(ssc1=S)C(C)(C)N2C(=O)CSc1nncn1C | inconclusive: 25.1 µM [inhibitor, single point] | –
38 | O=c1[nH]n(-c2ccc(Cl)cc2)c(=O)c(Cl)c1Cl | inconclusive: 12.6 µM [inhibitor, partial curve] | –
39 | CCC(CC)C(=O)NCc1ccccc1Cl | inactive | –
40 | COc1ccc(CCNC(=O)CN(C2CCCCC2)S(C)(=O)=O)cc1 | inactive | –
41 | Cn1c(/N=C/c2c(O)ccc3ccccc23)nc2ccccc21 | inconclusive: 12.6 µM [inhibitor, partial curve] | –
42 | CC(CC1C(C#N)=C(N)SC(N)=C1C#N)c1ccccc1 (stereo unspecified) | active: 20 µM | –
43 | Cc1cc(C)cc(N(CC(=O)NCC2CCCO2)C(=O)CCC(=O)Nc2cc(C)on2)c1 (stereo unspecified) | inactive | –
44 | Cn1c(N)c(C(=O)COC(=O)c2cc(C3CC3)nc3ccccc23)c(=O)n(C)c1=O | inactive | –
45 | O=C(c1cccc(F)c1)N1CCC[C@@]2(CCN(c3ncccn3)C2)C1 | inactive | –
46 | COc1ccc(NC(=S)NCCc2c[nH]c3ccc(OC)cc23)c(OC)c1 | inconclusive: 25.1 µM [inhibitor, single point] | –
47 | O=C(c1ccc(F)cc1)c1ccc(N2CCCC2)cc1 | inconclusive: 31.6 µM [inhibitor, single point] | –
48 | CCOC(=O)c1c(N)sc2c(O)c(Br)ccc12 | inconclusive: 12.6 µM [inhibitor, partial curve] | –

Row | Structure (SMILES) | Potency | activity change, negative = inhibition
49 | O=c1c(CCc2ccccc2)nc2cnc(Oc3cccc(Cl)c3)nc2n1C[C@H]1CCCO1 | inactive | –
50 | Nc1ccc(N(c2ccccc2)c2ccc(N)cc2)cc1 | active: 0.631 µM | –
51 | CC(=O)N[C@H](Cc1ccc(O)cc1)C(=O)O | – | inactive: -2.68% [at 11.4 µM]
52 | CCn1nc([N+](=O)[O-])c(C(C#N)c2nc3cc(C(F)(F)F)ccc3s2)c(Cl)c1=O (stereo unspecified) | inconclusive: 12.6 µM [inhibitor, partial curve] | –
53 | N#CCSc1nc2c(cc1C#N)CCCCCC2 | – | inactive: -2.49% [at 2.29 µM]
54 | Cc1nc(-c2ccc(O)c(O)c2)cs1 | inconclusive: 12.6 µM [inhibitor, partial curve] | –
55 | C=CCn1cnc2c(c1=O)c1nc3ccccc3nc1n2/N=C/c1cccc(OC)c1OC | inconclusive: 10 µM [inhibitor, partial curve] | –
56 | CCOc1ccccc1NC(=O)N1CCCC(c2nc3c(nnn3Cc3ccc(C)cc3)c(=O)[nH]2)C1 (stereo unspecified) | inconclusive: 39.8 µM [inhibitor, single point] | –
57 | Cc1cc(NC(=O)Cn2c(=O)n(Cc3ccccc3)c(=O)c3ccccc32)no1 | inconclusive: 20 µM [inhibitor, partial curve] | –
58 | CCC(CC)C(=O)Nc1cccc(C(=O)NCCc2ccc(S(N)(=O)=O)cc2)c1 | inactive | –
59 | O=C(Nc1nnc(-c2ccccc2SCc2ccccc2)s1)Nc1ccccc1F | inconclusive: 5.01 µM [inhibitor, partial curve] | –
60 | CC(=O)NCCNc1nc(-c2ccc(N(C)C)cc2)nc2ccccc12 | inactive | –
61 | O=C1SC(c2ccccc2)=C/C1=C\N1CCCCC1 | inconclusive: 15.8 µM [inhibitor, partial curve] | –
62 | CCCc1cc(=O)oc2cc(C)c(CN3CCCC3)c(O)c12 | inactive | –
63 | O=C(CCc1ccc(S(=O)(=O)N2CCOCC2)cc1)Nc1cc(Cl)ccc1N1CCOCC1 | inconclusive: 1 µM [inhibitor, single point] | –
64 | CC(C)(C)C(=O)NCCCc1nc2ccccc2n1CCCOc1ccc(Cl)cc1 | inconclusive: 0.316 µM [inhibitor, full curve, poor fit] | –
65 | COC(=O)c1sc(N2C(=O)C(O)=C(C(=O)c3ccc(C)o3)C2c2ccc(F)cc2)nc1C (stereo unspecified) | inconclusive: 25.1 µM [inhibitor, single point] | –
66 | C=CCn1c(NC(=O)c2ccc(Br)o2)c(S(=O)(=O)c2ccccc2)c2nc3ccccc3nc21 | inconclusive: 25.1 µM [inhibitor, single point] | –
67 | Cc1ccc(NCCC(=O)c2ccc(Cl)c(Cl)c2)cc1 | inconclusive: 0.251 µM [inhibitor, full curve, poor fit] | –
68 | CCOc1ccc(NC(=S)NC(=O)/C=C/c2ccc(C)cc2)c([N+](=O)[O-])c1 | inconclusive: 15.8 µM [inhibitor, partial curve] | –
69 | COc1ccc(C)cc1NC(=O)c1cc2ccccc2cc1OCC(=O)NCc1ccco1 | inconclusive: 15.8 µM [inhibitor, partial curve] | –
70 | COc1ccc2c(c1)-c1ccccc1S(=O)(=O)N2C(C)=O | inactive | –
71 | OC1(C(F)(F)F)CC(O)(C(F)(F)F)n2nc(-c3ccccc3)cc2N1 (stereo unspecified) | inconclusive: 3.16 µM [inhibitor, single point] | –
